The data set concerns ATP. Description: switch fluorescence ratio, 500 uM ATP over buffer (Cy3 cluster intensity, sum of 5 cycles each) (fold (ratio)); higher = stronger signal-on switching upon ATP binding; sequences stand for … in TCGTCGGCAGCGTCAGATGTGTATAAGAGACAGTTTTTTTTTTTTTTTTTTTTTTTTT…TC. The conditions noted are these: aptamer strand: ATP DNA aptamer (quencher-CACCTGGGGGAGTATTGCGGAGGAAGG + anchor), 100 nM annealed; ATP concentration: 500 uM; one replicate. In a few lines:
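Clusters with intensities outside 100-1000 RFU were excluded. The remaining Cy3-labelled switching-strand clusters on a modified Illumina MiSeq flow-cell had been annealed to 100 nM quencher-labelled ATP aptamer and imaged in selection buffer, then after 15 min with 500 uM ATP at 22 °C, for five cycles separated by NaOH stripping and re-annealing. The fluorescence ratio, averaged per switch-domain sequence, is each cluster's summed target-cycle Cy3 intensity over its summed buffer-cycle Cy3 intensity.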

These results are taken from the supplement of paper PMC10126150.

Sequences with one replicate were seen in a single cluster, so their values are uncertain.
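Note: ATP exposure 15 min at 22 °C before imaging.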

As for CTACGCTAGT, the switch fluorescence ratio came out at 1.29.

Turning to TTCCAGAGCG, the switch fluorescence ratio worked out at 1.57.

Take GACGGGTTT: the switch fluorescence ratio worked out at 0.997.

Turning to TGGTGAACTT, the switch fluorescence ratio is 0.999.

In the case of ATGTTGTACG, the switch fluorescence ratio is 1.03.

Regarding ACGAATGTAA, the switch fluorescence ratio stood at 0.95.

With ATCAATTGGG, the switch fluorescence ratio worked out at 0.966.

TGAGTCAGGC: the switch fluorescence ratio was 0.888.

As for TACAATTTGG, the switch fluorescence ratio was found to be 1.01.

As for GTAGCATGAG, the switch fluorescence ratio is 1.57.

Take TACCGCCACC: the switch fluorescence ratio was found to be 1.57.

With GCACGTTCGT, the switch fluorescence ratio worked out at 0.97.

For ACACGAAATA, the switch fluorescence ratio is 1.12.

Regarding GCTGTGTGCT, the switch fluorescence ratio came out at 0.97.

As for GGAGTGTGCA, the switch fluorescence ratio amounted to 1.05.

Turning to CAATAAGGGT, the switch fluorescence ratio is 1.04.

As to CGTCGTGAGG, the switch fluorescence ratio came to 1.01.

Turning to TTACTAGAAA, the switch fluorescence ratio worked out at 0.98.

On to AGAACGTGAG, for which the switch fluorescence ratio is 1.

Regarding ATTCAGCCGG, the switch fluorescence ratio is 1.08.

As for TGAAGGCGTT, the switch fluorescence ratio came to 0.987.

Regarding GAGTTCGTTA, the switch fluorescence ratio is 1.01.

AGCACTTGTT: the switch fluorescence ratio turned out to be 1.01.

On to TCACGGGGCC, for which the switch fluorescence ratio came out at 1.06.

Consider CTCGATTTTC, for which the switch fluorescence ratio was 1.03.

With TAAAGGGGC, the switch fluorescence ratio worked out at 1.09.

CTGTTATATC: the switch fluorescence ratio stood at 1.04.

Regarding CTTTAAAGC, the switch fluorescence ratio came out at 1.06.

Consider AACAATGGTT, for which the switch fluorescence ratio amounted to 0.997.

As for CGGGACCAAT, the switch fluorescence ratio came to 1.04.

Take AGAGAATAC: the switch fluorescence ratio came out at 1.16.

Regarding TAATCATGAC, the switch fluorescence ratio turned out to be 1.09.

AACTACGAAG: the switch fluorescence ratio was determined as 0.987.

As for GTCCGGGACA, the switch fluorescence ratio stood at 0.95.

For the sequence GGTATGGTAA, the switch fluorescence ratio was 0.993.

On to TCGGGGGT, for which the switch fluorescence ratio worked out at 1.01.

As to TAAAAAGCG, the switch fluorescence ratio came out at 1.

In the case of CGGATTCGCC, the switch fluorescence ratio is 1.

Take GTTGCTATG: the switch fluorescence ratio stood at 0.996.

With AGGAAGGTGG, the switch fluorescence ratio turned out to be 1.01.

Take GCTCCGTTAG: the switch fluorescence ratio stood at 3.42.

Turning to TTGACTGTCA, the switch fluorescence ratio amounted to 0.987.

As for AGTTTCGCAT, the switch fluorescence ratio amounted to 1.1.

Consider AAAAGAGTTA, for which the switch fluorescence ratio worked out at 0.969.

As to GCCAAAAGAG, the switch fluorescence ratio came to 1.02.

On to GGATGCCCCT, for which the switch fluorescence ratio was found to be 0.942.

Consider GAATTTGTAA, for which the switch fluorescence ratio turned out to be 0.963.

Turning to AAATAGTGTA, the switch fluorescence ratio was 1.02.

As for TGCCTACACT, the switch fluorescence ratio was determined as 1.03.

Turning to CAGCCAGGGT, the switch fluorescence ratio was determined as 1.23.

Regarding TATAGTTGAC, the switch fluorescence ratio is 1.03.

TCCCCCGAAG: the switch fluorescence ratio was 1.46.

Take ACAGGGGAGG: the switch fluorescence ratio was determined as 1.1.

On to AACTTACGTG, for which the switch fluorescence ratio is 1.15.

Consider AGGGTGGATT, for which the switch fluorescence ratio worked out at 0.967.

As for TTCAGGGAAA, the switch fluorescence ratio came out at 1.01.

As for TTGATGATGT, the switch fluorescence ratio worked out at 1.01.

As for GGAAACGGAA, the switch fluorescence ratio came out at 1.01.

As for AGTGGGGTCG, the switch fluorescence ratio was 0.967.

CAGGTCCGAT: the switch fluorescence ratio was 1.

As for CGACTTTTTG, the switch fluorescence ratio came to 0.921.

In the case of AGGATTGGTA, the switch fluorescence ratio came out at 1.01.

In the case of CCTCTCTCGA, the switch fluorescence ratio worked out at 1.67.

With GCTCGTCGGG, the switch fluorescence ratio stood at 1.01.

Take ACATAGGCTA: the switch fluorescence ratio stood at 1.01.

With CACGGAGTAA, the switch fluorescence ratio came to 1.63.

With TACAGTGTGC, the switch fluorescence ratio came out at 1.04.

For the sequence CTAGATTGTT, the switch fluorescence ratio was found to be 0.986.

Consider AAGCTTTGTA, for which the switch fluorescence ratio was determined as 1.01.

Take AGGGAGCCAC: the switch fluorescence ratio worked out at 1.02.

As for CTTGGAGGAG, the switch fluorescence ratio came to 0.987.

For the sequence GTAGTGAGAA, the switch fluorescence ratio stood at 1.01.

With TAAGGGCACC, the switch fluorescence ratio is 1.02.

In the case of TGCGCGCCTC, the switch fluorescence ratio is 1.01.

As for TCAGTTCGTC, the switch fluorescence ratio turned out to be 0.946.

Turning to ACCCCCGTTA, the switch fluorescence ratio came to 1.35.

On to CTACTTAGGC, for which the switch fluorescence ratio was found to be 1.01.

AGCTTTCGGC: the switch fluorescence ratio was 1.03.

Turning to GGGTGATATG, the switch fluorescence ratio is 1.

On to ATGAGTAACC, for which the switch fluorescence ratio stood at 0.961.

TCGGCTTCAA: the switch fluorescence ratio was 0.979.

Regarding TGGCGGGAGC, the switch fluorescence ratio worked out at 1.01.

For the sequence ATTGGCCTGA, the switch fluorescence ratio was found to be 1.

For the sequence TTCAGAAACG, the switch fluorescence ratio was 0.996.

As to ATCGCTGAGC, the switch fluorescence ratio worked out at 1.03.

On to CTGCCGAAGG, for which the switch fluorescence ratio came to 1.01.

As to GGCAGCTGTA, the switch fluorescence ratio turned out to be 0.95.

Take ATTTACAACT: the switch fluorescence ratio worked out at 1.1.

On to CCTTTGTGCC, for which the switch fluorescence ratio is 1.04.

Turning to TAAGGCATCT, the switch fluorescence ratio worked out at 1.03.

For the sequence CGGGTTAC, the switch fluorescence ratio is 1.11.

Turning to TGAAGAGGGA, the switch fluorescence ratio turned out to be 0.997.

Regarding CAGCCCGGCT, the switch fluorescence ratio is 0.998.

For the sequence TATGAGGGAA, the switch fluorescence ratio turned out to be 1.01.

As to CGCGCCTCCT, the switch fluorescence ratio amounted to 1.21.

As to AACCAACTAC, the switch fluorescence ratio worked out at 1.27.

AAGAGGATAC: the switch fluorescence ratio turned out to be 1.03.

With ACGAAGTGCA, the switch fluorescence ratio was 1.

Regarding CACCACGATG, the switch fluorescence ratio was 1.

Turning to ACGTATGTTT, the switch fluorescence ratio amounted to 1.08.

With GGCTAACCTG, the switch fluorescence ratio was determined as 1.03.

Take AGAACTTCGG: the switch fluorescence ratio was found to be 0.99.

For the sequence ACTCATGAGG, the switch fluorescence ratio came out at 1.

With TTTTCTTAAA, the switch fluorescence ratio amounted to 1.

As for TCGTGTTACC, the switch fluorescence ratio amounted to 1.01.

TACGATCTAA: the switch fluorescence ratio is 1.02.

Turning to GTGTGGTTTG, the switch fluorescence ratio turned out to be 1.01.

On to TGGAGATCAT, for which the switch fluorescence ratio was 0.992.

As to CAATATGAAA, the switch fluorescence ratio came to 1.03.

On to AAATGCACGG, for which the switch fluorescence ratio turned out to be 1.12.

On to CTGCTAATAG, for which the switch fluorescence ratio is 1.83.

GGGACCAGTT: the switch fluorescence ratio amounted to 0.994.

In the case of AATCAAGGCT, the switch fluorescence ratio was determined as 1.02.

Regarding GTCAGTTTTC, the switch fluorescence ratio came out at 0.993.

As for GAATCAAACT, the switch fluorescence ratio came out at 1.07.

Consider CCCAGATGGC, for which the switch fluorescence ratio came to 1.19.

In the case of AAGCGGCCTC, the switch fluorescence ratio was 1.01.

On to TGTGGACATC, for which the switch fluorescence ratio is 1.07.

For GACCAGTACT, the switch fluorescence ratio was determined as 1.28.

For the sequence GCTGCAGTTG, the switch fluorescence ratio is 1.06.
